Measurements as given in PMC9911399, “Two distinct binding modes provide the RNA-binding protein RbFox with extraordinary sequence specificity”.
Residue numbers refer to the chain shown, from its start. This is one part of the list.

T1: RBFOX1 RRM RbFoxmut (Fox-RRM*) (Homo sapiens, UniProt Q9NWB1 109-208, R118D;E147R;N151S;E152T)
T1 sequence: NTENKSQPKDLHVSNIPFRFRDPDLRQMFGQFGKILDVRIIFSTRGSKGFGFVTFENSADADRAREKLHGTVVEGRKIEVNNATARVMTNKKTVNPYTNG

B1: CCUCGGU (DNA:RNA)
RNA: GGGAGACCGGAAUUCAGAUUGUCCCCUCGGUUUAAAUCCCGUCGUAGCCACCA
DNA 1: CAATCTGAATTCCGGTCTCCC
DNA 2: TGGTGGCTACGACGGGATT
B2: GUCGCUA (DNA:RNA)
RNA: GGGAGACCGGAAUUCAGAUUGUCCGUCGCUAUUAAAUCCCGUCGUAGCCACCA
DNA 1: CAATCTGAATTCCGGTCTCCC
DNA 2: TGGTGGCTACGACGGGATT
B3: AUGGCAU (DNA:RNA)
RNA: B2 RNA with G25A, C27G, U30A, A31U
DNA 1: CAATCTGAATTCCGGTCTCCC
DNA 2: TGGTGGCTACGACGGGATT
B4: ACAAUUU (DNA:RNA)
RNA: B1 RNA with C25A, U27A, C28A, G29U, G30U
DNA 1: CAATCTGAATTCCGGTCTCCC
DNA 2: TGGTGGCTACGACGGGATT
B5: CCGGCAU (DNA:RNA)
RNA: B1 RNA with U27G, C28G, G29C, G30A
DNA 1: CAATCTGAATTCCGGTCTCCC
DNA 2: TGGTGGCTACGACGGGATT
B6: AUUGACA (DNA:RNA)
RNA: B2 RNA with G25A, C27U, C29A, U30C
DNA 1: CAATCTGAATTCCGGTCTCCC
DNA 2: TGGTGGCTACGACGGGATT
B7: CUACGGC (DNA:RNA)
RNA: B1 RNA with C26U, U27A, U31C
DNA 1: CAATCTGAATTCCGGTCTCCC
DNA 2: TGGTGGCTACGACGGGATT
B8: GGACGAA (DNA:RNA)
RNA: B1 RNA with C25G, C26G, U27A, G30A, U31A
DNA 1: CAATCTGAATTCCGGTCTCCC
DNA 2: TGGTGGCTACGACGGGATT
B9: CAGUCUC (DNA:RNA)
RNA: B2 RNA with G25C, U26A, C27G, G28U, A31C
DNA 1: CAATCTGAATTCCGGTCTCCC
DNA 2: TGGTGGCTACGACGGGATT
B10: AGGCCUC (DNA:RNA)
RNA: B2 RNA with G25A, U26G, C27G, G28C, A31C
DNA 1: CAATCTGAATTCCGGTCTCCC
DNA 2: TGGTGGCTACGACGGGATT
B11: GCUCCUG (DNA:RNA)
RNA: B1 RNA with C25G, G29C, G30U, U31G
DNA 1: CAATCTGAATTCCGGTCTCCC
DNA 2: TGGTGGCTACGACGGGATT
B12: AGGCCAA (DNA:RNA)
RNA: B2 RNA with G25A, U26G, C27G, G28C, U30A
DNA 1: CAATCTGAATTCCGGTCTCCC
DNA 2: TGGTGGCTACGACGGGATT
B13: ACUCCAC (DNA:RNA)
RNA: B1 RNA with C25A, G29C, G30A, U31C
DNA 1: CAATCTGAATTCCGGTCTCCC
DNA 2: TGGTGGCTACGACGGGATT
B14: UUCGCAU (DNA:RNA)
RNA: B2 RNA with G25U, U30A, A31U
DNA 1: CAATCTGAATTCCGGTCTCCC
DNA 2: TGGTGGCTACGACGGGATT
B15: UGUUCAA (DNA:RNA)
RNA: B2 RNA with G25U, U26G, C27U, G28U, U30A
DNA 1: CAATCTGAATTCCGGTCTCCC
DNA 2: TGGTGGCTACGACGGGATT
B16: UUAGCCG (DNA:RNA)
RNA: B2 RNA with G25U, C27A, U30C, A31G
DNA 1: CAATCTGAATTCCGGTCTCCC
DNA 2: TGGTGGCTACGACGGGATT
B17: GAGAUAC (DNA:RNA)
RNA: B2 RNA with U26A, C27G, G28A, C29U, U30A, A31C
DNA 1: CAATCTGAATTCCGGTCTCCC
DNA 2: TGGTGGCTACGACGGGATT
B18: ACGGUCA (DNA:RNA)
RNA: B2 RNA with G25A, U26C, C27G, C29U, U30C
DNA 1: CAATCTGAATTCCGGTCTCCC
DNA 2: TGGTGGCTACGACGGGATT
B19: UCCUGGU (DNA:RNA)
RNA: B1 RNA with C25U, U27C, C28U
DNA 1: CAATCTGAATTCCGGTCTCCC
DNA 2: TGGTGGCTACGACGGGATT
B20: GACGCCA (DNA:RNA)
RNA: B2 RNA with U26A, U30C
DNA 1: CAATCTGAATTCCGGTCTCCC
DNA 2: TGGTGGCTACGACGGGATT
B21: UUCCGCG (DNA:RNA)
RNA: B1 RNA with C25U, C26U, U27C, G30C, U31G
DNA 1: CAATCTGAATTCCGGTCTCCC
DNA 2: TGGTGGCTACGACGGGATT
B22: GUACUUC (DNA:RNA)
RNA: B2 RNA with C27A, G28C, C29U, A31C
DNA 1: CAATCTGAATTCCGGTCTCCC
DNA 2: TGGTGGCTACGACGGGATT
B23: CCCCGGU (DNA:RNA)
RNA: B1 RNA with U27C
DNA 1: CAATCTGAATTCCGGTCTCCC
DNA 2: TGGTGGCTACGACGGGATT
B24: GCGCGGA (DNA:RNA)
RNA: B1 RNA with C25G, U27G, U31A
DNA 1: CAATCTGAATTCCGGTCTCCC
DNA 2: TGGTGGCTACGACGGGATT
B25: GUUCGUC (DNA:RNA)
RNA: B1 RNA with C25G, C26U, G30U, U31C
DNA 1: CAATCTGAATTCCGGTCTCCC
DNA 2: TGGTGGCTACGACGGGATT
B26: CGUUCCU (DNA:RNA)
RNA: B1 RNA with C26G, C28U, G29C, G30C
DNA 1: CAATCTGAATTCCGGTCTCCC
DNA 2: TGGTGGCTACGACGGGATT
B27: CCUCCUU (DNA:RNA)
RNA: B1 RNA with G29C, G30U
DNA 1: CAATCTGAATTCCGGTCTCCC
DNA 2: TGGTGGCTACGACGGGATT
B28: GGAAGUU (DNA:RNA)
RNA: B1 RNA with C25G, C26G, U27A, C28A, G30U
DNA 1: CAATCTGAATTCCGGTCTCCC
DNA 2: TGGTGGCTACGACGGGATT
B29: GAGUAAC (DNA:RNA)
RNA: B2 RNA with U26A, C27G, G28U, C29A, U30A, A31C
DNA 1: CAATCTGAATTCCGGTCTCCC
DNA 2: TGGTGGCTACGACGGGATT
B30: CAAACGC (DNA:RNA)
RNA: B1 RNA with C26A, U27A, C28A, G29C, U31C
DNA 1: CAATCTGAATTCCGGTCTCCC
DNA 2: TGGTGGCTACGACGGGATT
B31: GUCCUUU (DNA:RNA)
RNA: B2 RNA with G28C, C29U, A31U
DNA 1: CAATCTGAATTCCGGTCTCCC
DNA 2: TGGTGGCTACGACGGGATT

molecular target: T1, RBFOX1 RRM RbFoxmut (Fox-RRM*); assay: EMSA; HiTS-Eq, 1 nM pool, 10 min; buffer printed only for the single-RNA assays: 10 mM Tris pH 7.5, 150 mM NaCl, 3.4 mM EDTA, 0.001% NP-40, 30 C; conditions: tags: His6 N-terminal (pET28a); label: 5' 32P
How it was run: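 A pool of RNA with 7 randomized nucleotides, 5′-radiolabelled and with DNA-annealed flanks, was equilibrated at 1 nM for 10 min in 50 µL with purified RbFox RRM, wild type or mutant, across increasing protein concentrations. Free RNA was separated by 8% native PAGE, excised, reverse-transcribed, barcoded by PCR and sequenced. Relative association constants were obtained from read-count changes of each RNA species versus the control reaction and normalised to the cognate motif.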

In order of falling binding signal:
1. B25  0.199 KA relative to UGCAUGU
2. B3  0.146 KA relative to UGCAUGU
3. B2  0.135 KA relative to UGCAUGU
4. B14  0.123 KA relative to UGCAUGU
5. B16  0.123 KA relative to UGCAUGU
6. B18  0.118 KA relative to UGCAUGU
7. B1  0.111 KA relative to UGCAUGU
8. B21  0.105 KA relative to UGCAUGU
9. B8  0.104 KA relative to UGCAUGU
10. B17  0.1 KA relative to UGCAUGU
11. B19  0.0983 KA relative to UGCAUGU
12. B29  0.0879 KA relative to UGCAUGU
13. B23  0.0852 KA relative to UGCAUGU
14. B11  0.0816 KA relative to UGCAUGU
15. B24  0.0813 KA relative to UGCAUGU
16. B12  0.0811 KA relative to UGCAUGU
17. B31  0.081 KA relative to UGCAUGU
18. B28  0.0767 KA relative to UGCAUGU
19. B15  0.0759 KA relative to UGCAUGU
20. B4  0.0757 KA relative to UGCAUGU
21. B10  0.0748 KA relative to UGCAUGU
22. B5  0.0728 KA relative to UGCAUGU
23. B22  0.0694 KA relative to UGCAUGU
24. B13  0.0681 KA relative to UGCAUGU
25. B9  0.0665 KA relative to UGCAUGU
26. B30  0.0658 KA relative to UGCAUGU
27. B20  0.0655 KA relative to UGCAUGU
28. B7  0.0631 KA relative to UGCAUGU
29. B6  0.0621 KA relative to UGCAUGU
30. B27  0.0511 KA relative to UGCAUGU
31. B26  0.0447 KA relative to UGCAUGU
